The results in this text go back to PubChem BioAssay AID485344 (National Center for Advancing Translational Sciences (NCATS), 2010).

The whole screen tested about 340,000 compounds, of which about 6,900 (2%) were called active. No stated cut-off is given here; in the data, active means inhibition above about 30%; inactive means below that, where a call was filed. This is a selection; strong and weak results do not stand in their true shares. Entries without a call were filed so in the source.

This assay concerns the target D(2) dopamine receptor (Homo sapiens) (UniProt P14416). The assay is described as follows: HTS Assay for Allosteric Antagonists of the Human D2 Dopamine Receptor: Primary Screen for Antagonists. Further: 0% is about no effect. To be noted: HEK293 TREx D2 cells, calcium flux, dopamine EC80; at 10 µM; stronger effect = higher value. Summed up: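 HEK293 T-REx D2 cells, tet-induced, calcium dye no-wash. Cpd pintool add, 180 s kinetic, then EC80 DA, 180 s kinetic. Ca flux read.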
Sequence of UniProt P14416 (P14416 whole entry, looked up): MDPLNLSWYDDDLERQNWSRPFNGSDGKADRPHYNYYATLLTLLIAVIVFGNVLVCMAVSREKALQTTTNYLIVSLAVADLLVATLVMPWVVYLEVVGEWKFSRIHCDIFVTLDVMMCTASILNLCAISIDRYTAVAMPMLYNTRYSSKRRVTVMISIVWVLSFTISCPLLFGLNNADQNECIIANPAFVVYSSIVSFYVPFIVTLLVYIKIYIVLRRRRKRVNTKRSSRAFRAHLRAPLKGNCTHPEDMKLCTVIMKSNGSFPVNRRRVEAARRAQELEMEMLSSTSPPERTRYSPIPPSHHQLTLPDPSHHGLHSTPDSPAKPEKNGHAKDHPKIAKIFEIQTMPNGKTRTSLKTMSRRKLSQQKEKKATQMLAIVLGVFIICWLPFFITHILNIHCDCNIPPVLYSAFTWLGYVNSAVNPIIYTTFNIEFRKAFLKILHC
Regarding `Cc1cc(F)ccc1NC(=O)CCS(=O)(=O)c1cccc2nsnc12`, the inhibition is -12.7%.
On to `CC(=O)c1[nH]c(C)c(C(=O)NCc2ccc(Cl)cc2)c1C`, for which the inhibition was 19.8%.
The value for `O=C(Nc1ccc2oc(-c3cccc4c(Br)cccc34)nc2c1)c1ccc(Br)cc1` was -12.2%; that for `O=C(c1ccco1)N1CCN(Cc2cccnc2)CC1` was active: 31.2%.
The figure for `Cc1cccc(-n2nnc(-c3nc(-c4cccs4)no3)c2N)c1C` is -12%.
For `Cc1ccccc1CNC(=O)CCCn1ncn2c(cc3occc32)c1=O`, the inhibition turned out to be 4.45%.
The figure for `O=C1C2=C(Nc3ccccc3SC2c2ccc(C(F)(F)F)cc2)c2ccccc21` (stereo not drawn) is 10.8%; for `COc1ccc(NC(=O)CSC2=Nc3ccccc3C3=NC(Cc4ccccc4)C(=O)N23)cc1` (stereo not drawn) it is -3.3%; for `COc1ccc(NC(=O)c2c(NC(=O)c3cccc(C)c3)sc3c2CCC3)cc1` it is -11.1%.
The value for `COc1ccccc1Nc1ncc2c(n1)CCN(CC(C)C)C2` was -24.4%.
The value for `COc1ccc(-c2nc3ccccc3o2)cc1NC(=O)c1ccc(-c2ccc(C)c(Cl)c2)o1` was -0.152%.
Regarding `O=C(Nc1ccc(Cl)cc1)c1ccc2ncsc2c1`, the inhibition is active: 40.1%.
For `CCN(C(=O)c1cc2c(=O)oc3ccccc3c2s1)c1cccc(C(F)(F)F)c1`, the inhibition is 13.5%.
The value for `Cc1ccc(Nc2c(-c3ccco3)nc3ccc(C)cn23)cc1` was -3.03%; that for `CCOc1ccc(OCC)c(Nc2nc3ccccc3n3nnnc23)c1` was -4.37%.
Consider `CCn1c(=O)c2sccc2n2c(CCCC(=O)Nc3ccc(C)cc3)nnc12`, for which the inhibition amounted to 13.2%.
The figure for `COc1cc(NC(=O)c2c(C)nn(-c3ccc(F)cc3)c2-n2cccc2)cc(OC)c1` is -5.64%; for `COc1ccc(-n2nnnc2C2CCN(S(=O)(=O)c3cc(Cl)ccc3OC)CC2)cc1` it is 3.58%.
As for `Cc1ccc(N2CCN(c3ncnc4onc(-c5ccc(F)cc5)c34)CC2)c(C)c1`, the inhibition is -12.5%.
As for `Cc1ccc(S(=O)(=O)NCCc2nnc3ccc(SCc4cccc(F)c4)nn23)cc1`, the inhibition came out at 1.6%.
The value for `COc1ccc(NC(=O)C2CCN(c3nc4ccccc4[nH]3)CC2)cc1OC` was 9.76%; that for `Cc1ccc(NC(=O)CSc2nnc(C)s2)c(C)c1` was 3.42%.
The figure for `COc1ccccc1/C=C/CN1CCC(Oc2ccc(C(=O)N3CCCCC3)cc2)CC1` is active: 68.6%.
The figure for `COc1ccc(-c2nc(SCC(=O)NCc3nc4ccccc4n3C)n3[nH]c(=O)cc3n2)cc1` is -5.5%; for `CCCCN1C(=O)C(NC(=O)c2ccc(C(C)(C)C)cc2)(C(F)(F)F)C(C(=O)OC)=C1C` (stereo not drawn) it is -3.64%; for `c1ccc(OCCOCCN2CCc3ccccc3C2)cc1` it is active: 64.9%.
With `Cc1cc(O)c(C(c2ccc(F)cc2)N2CCN(c3ccccc3)CC2)c(=O)n1Cc1ccco1` (stereo not drawn), the inhibition stood at 0.461%.
As to `CC(NC(=O)c1cccc(Nc2nc3ccccc3n3nnnc23)c1)c1ccccc1` (stereo not drawn), the inhibition turned out to be 15%.
The figure for `O=C(CSc1nc2c(c(=O)[nH]1)CCC2)Nc1cccc(O)c1` is -14.4%; for `COc1ccc(OC)c(NC(=O)Nc2cccc(OCc3cc(=O)n4cc(C)ccc4n3)c2)c1` it is -15.2%.
The figure for `COc1ccc(Cn2nnnc2CN2CCc3ccccc3C2)cc1` is active: 34.4%.
The figure for `CCN1CCN(c2oc(-c3ccc(COc4ccc(OC)cc4)o3)nc2C#N)CC1` is -0.48%; for `CC(C)(C)OC(=O)N1CCC(c2c(C(=O)NCCN3CCOCC3)cnn2-c2cccc(F)c2)CC1` it is 6.02%; for `CC(=O)c1ccc(N2C(=O)N(Cc3ccc(F)cc3)c3ccccc3S2(=O)=O)cc1` it is -5.22%.
With `CCN(CC)S(=O)(=O)c1nnc(NC(=O)COc2ccccc2)s1`, the inhibition was 13.5%.
The value for `COc1ccc(C2(CNC(=O)C(=O)Nc3ccc(C)c(Cl)c3)CCCC2)cc1OC` was 11%; that for `Clc1cccc(-n2ncc3c(NCCC4=CCCCC4)ncnc32)c1` was -0.326%; that for `COc1ccc(OC)c(C(=O)CN2C(=O)N(c3cc(C)cc(C)c3)S(=O)(=O)c3ccccc32)c1` was 1.01%.
Consider `CCCCCN1C(C(=O)c2ccccc2)=C(NC(=O)c2ccc(OC)c(OC)c2)c2ccccc2S1(=O)=O`, for which the inhibition was -7.57%.
The figure for `COC(=O)c1ccccc1NC(=O)CSc1cc(-c2ccccc2)nc(C)n1` is -0.524%; for `Cc1ccc(CNC(=O)CCC(=O)n2ncc3cc(C)ccc32)cc1` it is active: 46.5%; for `COc1ccc(OC)c(CN2CCN(C(=O)c3cccs3)CC2)c1` it is active: 71%.
The value for `O=C(C1CCCN(S(=O)(=O)c2cccc3nonc23)C1)N1CCN(c2ccccc2F)CC1` (stereo not drawn) was 21.9%; that for `COc1ccc(NC(=O)N2CCC(CN3CCCC3)CC2)c(OC)c1` was -4.29%; that for `O=C(CCn1c(=O)c2cccn2c2ccc(F)cc21)NCCc1ccc(Cl)cc1` was 13.6%.
Turning to `Clc1ccc(-c2ccc(CNCCSc3nnnn3-c3ccccc3)o2)cc1`, the inhibition is 5.78%.
For `Cc1ccc2c(c1)-c1onc(C(=O)N3CCN(c4cc(C)ccc4C)CC3)c1CO2`, the inhibition is 9.61%.
As to `Cc1cc(C)n(-c2nc3cc(Cl)ccc3nc2N2CCN(c3cccc(C)c3C)CC2)n1`, the inhibition is -3.68%.
Consider `Cc1ccc(CCNC(=O)Cn2ncc3c([nH]c4ccccc43)c2=O)cc1`, for which the inhibition was -5.62%.
As to `COc1ccccc1CNS(=O)(=O)c1c(C(=O)N2CCC(C)CC2)c(C)n(C)c1C`, the inhibition amounted to 8.92%.
The figure for `COc1ccc(N2CCN(c3ncnc4c3nc3n4CCCCC3)CC2)cc1` is -15.9%.
The figure for `Cc1ccc(S(=O)(=O)c2cn(C)c3cc(N4CCOCC4)c(F)cc3c2=O)c(C)c1` is 7.07%; for `Cc1ccc(CCNC(=O)C2COc3ccccc3C2)cc1` (stereo not drawn) it is 9.67%; for `Cc1ccc(Cl)cc1-n1c(=O)c2sc3ccccc3c2n(CC(=O)NC2CCCC2)c1=O` it is -19.6%.
The figure for `Cc1ccc2nc(SCC(=O)c3ccc(Cl)cc3)nc(=O)n2c1` is active: 32.1%; for `Cc1ccc(S(=O)(=O)c2cn(C)c3cc(N4CCCCC4)c(F)cc3c2=O)cc1` it is 7.97%.
For `COc1ccc(C)cc1NC(=O)N1CCC(CN2CCC(C)CC2)CC1`, the inhibition was -1.34%.
`CCc1c(C)c2ccc(O)c(CN3CCN(c4ccccc4)CC3)c2oc1=O`: the inhibition turned out to be 1.61%.
On to `CCN1CCN(c2cc(C)c3cc(NC(=O)c4ccccc4F)ccc3n2)CC1`, for which the inhibition was -19.3%.
The figure for `CCOC(=O)c1c(NC(=O)COc2ccc(Cl)cc2C)sc(C(C)=O)c1C` is 1.73%; for `Cc1ccc(N2CCN(c3nc4c(S(=O)(=O)c5ccc(C)c(C)c5)nnn4c4ccccc34)CC2)c(C)c1` it is 8.34%; for `CCc1cccc(C)c1NC(=O)CN(C)S(=O)(=O)c1cccc2nsnc12` it is 9.57%.
The figure for `Cc1c(C(=O)N(Cc2ccc(N(C)C)cc2)CC2CCCO2)oc2ccc(Br)cc12` (stereo not drawn) is -11.4%.
